Results published in PubChem BioAssay AID504332 (National Center for Advancing Translational Sciences (NCATS), 2011).
Several values for one entry are separate records, joined by “and”; a condition that tells them apart may be missing. Equal entries are not always repeated. In all, about 350,000 compounds went through this assay and about 31,000 (8.9%) were called active. The shares of active, inactive and inconclusive entries below differ from those in the screen. The call rests on the fitted dose curve; in most records, active means well fitted inhibition curve with a large enough effect; inconclusive means small, poorly fitted or top-dose-only effect; inactive means no such curve, though single readings can be large or run the other way. Potencies beside an inconclusive call are fits to weak or partial responses and may not hold up. Some compounds were tested as several samples or in several runs, with calls that do not always agree.

Target: Histone-lysine N-methyltransferase EHMT2 (Homo sapiens) (UniProt Q96KQ7)
UniProt Q96KQ7, sequence (Q96KQ7 whole entry, looked up): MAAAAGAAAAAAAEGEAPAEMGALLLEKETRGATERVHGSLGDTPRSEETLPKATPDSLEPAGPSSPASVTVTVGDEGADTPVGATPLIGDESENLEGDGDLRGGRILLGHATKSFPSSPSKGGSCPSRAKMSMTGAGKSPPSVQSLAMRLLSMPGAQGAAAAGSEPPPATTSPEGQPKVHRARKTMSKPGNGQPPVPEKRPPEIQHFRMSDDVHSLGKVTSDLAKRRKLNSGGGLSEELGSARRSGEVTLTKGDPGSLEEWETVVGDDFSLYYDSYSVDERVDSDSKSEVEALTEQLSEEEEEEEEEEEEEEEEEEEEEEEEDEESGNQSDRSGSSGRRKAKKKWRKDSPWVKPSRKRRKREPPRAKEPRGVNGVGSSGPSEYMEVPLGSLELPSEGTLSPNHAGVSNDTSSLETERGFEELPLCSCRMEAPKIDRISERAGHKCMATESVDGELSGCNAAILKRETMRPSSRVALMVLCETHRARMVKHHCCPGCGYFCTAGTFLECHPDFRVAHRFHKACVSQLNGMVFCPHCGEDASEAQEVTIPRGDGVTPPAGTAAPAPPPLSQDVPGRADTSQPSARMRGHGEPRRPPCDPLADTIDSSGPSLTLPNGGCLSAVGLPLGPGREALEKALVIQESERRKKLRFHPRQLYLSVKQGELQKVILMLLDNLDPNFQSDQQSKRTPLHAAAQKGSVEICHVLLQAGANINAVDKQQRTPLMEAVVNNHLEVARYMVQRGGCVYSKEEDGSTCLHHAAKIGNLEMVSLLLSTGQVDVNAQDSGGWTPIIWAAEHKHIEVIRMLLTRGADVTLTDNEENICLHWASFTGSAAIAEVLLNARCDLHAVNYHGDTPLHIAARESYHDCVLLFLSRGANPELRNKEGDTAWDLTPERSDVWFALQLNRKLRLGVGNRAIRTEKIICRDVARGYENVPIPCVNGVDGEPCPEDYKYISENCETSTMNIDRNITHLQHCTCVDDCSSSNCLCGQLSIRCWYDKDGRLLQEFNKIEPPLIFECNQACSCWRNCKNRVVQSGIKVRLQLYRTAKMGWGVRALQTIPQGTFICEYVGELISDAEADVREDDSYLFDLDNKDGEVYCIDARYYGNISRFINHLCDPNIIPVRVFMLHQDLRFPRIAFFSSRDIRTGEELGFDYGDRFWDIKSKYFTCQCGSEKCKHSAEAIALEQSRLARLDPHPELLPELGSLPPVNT
Assay: qHTS Assay for Inhibitors of Histone Lysine Methyltransferase G9a; further: nearly all actives have a fitted effect of over 75% in size
Details: G9a H3K9 monomethylation, AlphaScreen, 2 h; activity, negative = inhibition: at 59 µM (top of the series) unless noted
Method in brief: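 AlphaScreen read-out: biotin-H3K9 peptide (500 nM) methylation by 20 nM enzyme with 20 uM SAM, 2 h at room temperature after 15 min compound preincubation; anti-monomethyl H3K9 antibody plus donor/acceptor beads, 10 min dark.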
On the % scale 0 is the no-effect control and ±100 the full control effect; potency means the concentration at half of the fitted maximal effect; tags describe the fitted curve by direction and shape.

Structure (SMILES)	Potency	activity, negative = inhibition
CSc1ccccc1C(=O)NCC1CCCO1 (centres undefined)	inactive	–
COc1ccc(N=C2SC(CC(=O)Nc3ccccc3)C(=O)N2CCN2CCOCC2)cc1 (centres undefined)	inconclusive: 89.1 µM [inhibitor, partial curve, poor fit]	–
CC(C)(CO)CNC(=O)c1ccc2nc(Cc3cccc(Cl)c3)oc2c1	inconclusive: 7.94 µM [inhibitor, partial curve, poor fit]	–
CCOc1ccc(CCNC(=O)c2ccc3c(c2)c(C)c(C)n3C)cc1	inconclusive: 39.8 µM [inhibitor, partial curve, poor fit]	–
Cc1ccc(NC(=O)CCNC(=O)c2ccco2)cc1	inactive	–
CSC(=NC1CCCCC1)NS(=O)(=O)c1ccccc1	inconclusive: 31.6 µM [inhibitor, partial curve, poor fit]	–
O=C(Nc1ccc(N2CCOCC2)cc1)c1cnccn1	inconclusive: 89.1 µM [inhibitor, single point]	–
CC(=O)c1cccc(CN2CCC(n3nccc3NC(=O)CCc3ccccc3)CC2)c1	inconclusive: 2.82 µM [inhibitor, full curve]	–
CN(C)c1ccc(Nc2nc(N)c([N+](=O)[O-])c(N3CCOCC3)n2)cc1	active: 7.08 µM	–
COc1cc(NC(=O)c2nnn(Cc3ccc(F)cc3)c2N)cc(OC)c1	inactive	–
O=C(NNC(=S)NC(=O)c1ccccc1[N+](=O)[O-])c1ccccc1	inconclusive: 39.8 µM [inhibitor, single point]	–
CC(=O)c1c(C)[nH]c(C(=O)OCC(=O)NCCc2ccc(Cl)cc2)c1C	inconclusive: 89.1 µM [inhibitor, single point]	–
Cc1sc2nc(CN3CCCC3)nc(N3CCN(S(=O)(=O)c4ccccc4)CC3)c2c1C	inconclusive: 35.5 µM [inhibitor, single point]	–
O=C(/C=C/c1ccccc1)NCCSCc1ccccc1	inconclusive: 89.1 µM [inhibitor, single point]	–
COc1ccc(OCc2cnc(Cl)s2)cc1	inactive	–
Cc1ccc(CSc2nsc(C)c2C#N)cc1	inconclusive: 0.158 µM [inhibitor, full curve, poor fit]	–
CCN1CCN(c2c(Cl)cccc2NC(=O)c2ccc([N+](=O)[O-])cc2)CC1	inconclusive: 44.7 µM [inhibitor, partial curve, poor fit]	–
N#CC1=C(N)Oc2cc(O)ccc2C1c1ccncc1 (centres undefined)	inconclusive: 56.2 µM [inhibitor, partial curve, poor fit]	–
O=C(CSCc1ccc([N+](=O)[O-])cc1)Nc1ccc(S(=O)(=O)N2CCCCCC2)cc1	inconclusive: 39.8 µM [inhibitor, single point]	–
Cc1nnc(SCC(=O)N(CC(C)C)C2CCS(=O)(=O)C2)s1 (centres undefined)	inconclusive: 25.1 µM [inhibitor, single point]	–
N[C@@H](Cc1cnc[nH]1)C(=O)O	active: 5.97 µM	inactive: -50% [at 12.7 µM]
CCC(=O)N1CCc2cc(Br)cc(S(=O)(=O)NCCc3ccc(OC)c(OC)c3)c21	inactive	–
CSc1ccccc1C(=O)NCC(c1ccco1)N1CCCCC1 (centres undefined)	inconclusive: 50.1 µM [inhibitor, partial curve, poor fit]	–

Structure (SMILES)	Potency	activity, negative = inhibition
CCOc1ccc(/C(O)=C2/C(=O)C(=O)N(CCOCCO)C2c2ccccc2)cc1 (centres undefined)	–	inconclusive: -54.8% [inhibitor]
O=C(/C=C/c1ccco1)N1CCN(S(=O)(=O)c2ccc(F)c(F)c2F)CC1	inconclusive: 28.2 µM [inhibitor, single point]	–
CCOc1ccc(-c2nc(CSCC(=O)NC3CCCc4ccccc43)c(C)o2)cc1 (centres undefined)	inconclusive: 89.1 µM [inhibitor, single point]	–
Cc1cc2ccccn2c1C(=O)c1ccc(C#N)cc1	inconclusive: 7.08 µM [inhibitor, partial curve, poor fit]	–
O=c1nc(/C=C/c2cc([N+](=O)[O-])ccc2Cl)cc(C(F)(F)F)[nH]1	inconclusive: 89.1 µM [inhibitor, single point]	–
CC(C)c1c(Cl)c(O)c(-c2ccccc2)c(=O)n1-c1ccc(F)cc1	active: 44.7 µM	–
Cc1ccc(CNC(=O)CC2Oc3ccccc3NC2=O)cc1 (centres undefined)	inactive	–
O=[N+]([O-])c1ccc(/C=C/c2ccc3cccc([N+](=O)[O-])c3n2)cc1	inconclusive: 12.6 µM [inhibitor, partial curve, poor fit]	–
Nc1nc(SCC(=O)N2CCc3ccccc3C2)[nH]c(=O)c1-c1ccccc1	inconclusive: 7.08 µM [inhibitor, single point]	–
O=C(NCCc1nnc2ccc(NCc3ccc(F)cc3)nn12)c1ccccc1	inactive	–
O=C(/C=C/c1cccc(F)c1)N1CCN(c2ncccn2)CC1	inconclusive: 1.58 µM [inhibitor, full curve, poor fit]	–
Cc1ccc(CCC(=O)Nc2ccc(CC(=O)O)cc2)o1	active: 56.2 µM	–
O=C(NCCc1ccccc1)C1CCN(C2CCN(Cc3ccc(CO)o3)CC2)CC1	inconclusive: 31.6 µM [inhibitor, full curve]	–
CC(C)c1ccc(NS(=O)(=O)c2ccc3[nH]cc(C(=O)NC4CCCC4)c(=O)c3c2)cc1	inconclusive: 39.8 µM [inhibitor, single point]	–
Cc1cc(C)cc(N=Cc2[nH]c3ccc(Br)c(Cl)c3c2O)c1	active: 12.6 µM	–
Cn1c(=O)c2c(=O)cc(NNC(=O)C(C)(C)C)[nH]c2n(C)c1=O	–	inactive: 3.84% [at 12.7 µM]
COc1ccc(N2C(=O)C3C(C2=O)C3(c2ccccc2)c2ccccc2)cc1 (centres undefined)	inactive	–
COCCn1c(=S)[nH]c2ccc(N(C)C)cc2c1=O	inconclusive: 11.2 µM [inhibitor, partial curve, poor fit]	–
CN1/C(=C\C(=O)COC(=O)c2ccco2)C(C)(C)c2ccccc21	inconclusive: 89.1 µM [inhibitor, single point]	–
Cc1ccc(-c2nc(C(=O)NCc3ccc(Cl)cc3)c3n2CCCCC3)cc1	inactive	–
C=CCNC(=S)NNC(=O)C(CCCC)CC(C)(C)O (centres undefined)	inconclusive: 11.2 µM [inhibitor, partial curve, poor fit]	–
O=C(Nc1nccs1)c1cn2ccccc2n1	inconclusive: 3.16 µM [inhibitor, full curve, poor fit]	–
CN=C1C=C/C(=N/N=c2\ccn(O)cc2C)C=C1C	active: 7.94 µM	–

Structure (SMILES)	Potency	activity, negative = inhibition
COC(=O)c1ccccc1NC(=O)C(C)NS(=O)(=O)c1ccc(OC)cc1 (centres undefined)	inconclusive: 39.8 µM [inhibitor, single point]	–
CC1(C)CC(CC(=O)O)CC(C)(C)N1	inactive	–
O=C1Cc2cc(S(=O)(=O)N3CCN(c4ccccc4)CC3)ccc2N1	inactive and inconclusive: 89.1 µM [inhibitor, single point]	–
Cc1nc(N)sc1-c1csc(Nc2ncccn2)n1	inconclusive: 3.55 µM [inhibitor, full curve]	–
O=C(COC(=O)c1ccccc1NC(=O)c1ccco1)Nc1ncc(Cl)cc1Cl	inconclusive: 3.16 µM [inhibitor, partial curve, poor fit]	–
Cc1ccc(Oc2ncccc2NC(=O)CC2(CC(=O)O)CCCC2)c2c1CCC2	inactive	–
COc1ccccc1C(=O)NC(CCSC)C(=O)NNC(=O)c1ccccc1C (centres undefined)	–	inactive: 25.8% [at 0.501 µM]
CCOC(=O)Cc1csc(NC(=O)CCSc2ccccc2)n1	active: 50.1 µM	–
CCOc1ccc(N(CC(=O)Nc2ccccc2)S(C)(=O)=O)cc1	inconclusive: 50.1 µM [inhibitor, partial curve, poor fit]	–
COc1ccc(-c2cc(C(F)(F)F)c(C#N)c(SCC(=O)Nc3ccccc3C#N)n2)cc1	inconclusive: 3.55 µM [inhibitor, single point]	–
O=C(N/N=C\c1ccc(COc2ccc([N+](=O)[O-])cc2)o1)c1ccc(Cl)cc1	inactive	–
NC(=O)NC(=O)CSc1nc(-c2ccccc2)c(-c2ccccc2)n1CC1CCCO1 (centres undefined)	inconclusive: 56.2 µM [inhibitor, partial curve, poor fit]	–
COc1ccc(/C=C/C(=O)N(C)C2(C)CCS(=O)(=O)C2)cc1 (centres undefined)	inactive	–
CCCCc1nc(N)c(C#N)c(-c2ccco2)c1CCC	inconclusive: 7.94 µM [inhibitor, partial curve, poor fit]	–
Cc1cc(C(C)(C)C)ccc1OCCOCCN1CCCC1	inconclusive: 28.2 µM [inhibitor, single point]	–
Cc1oc(S(=O)(=O)N(C)C)cc1C(=O)Nc1ccc(F)cc1	inactive	–
Cc1ccc(N2C(=O)C3C4C=CC(CNC(=S)N5CCN(c6ccccn6)CC5)(O4)C3C2=O)cc1 (centres undefined)	active: 2.24 µM	–
OC1(c2cccs2)CN(c2ccc(Cl)cc2)C2=[N+]1CCCC2 (centres undefined)	inconclusive: 89.1 µM [inhibitor, partial curve, poor fit]	–
O=C1CSC(c2ccccc2[N+](=O)[O-])N1c1ccc(O)cc1 (centres undefined)	inconclusive: 63.1 µM [inhibitor, partial curve]	–
CCCOc1ccc(/C=C/c2[nH]c(=O)[nH]c(=O)c2[N+](=O)[O-])cc1OCC	–	inactive: -0.938% [at 12.7 µM]
COc1ccc(OC)c(NC2=C(c3ccccc3)C(=O)c3ccccc32)c1	active: 11.2 µM	–
COc1ccc(/C=N/Nc2nnc(-c3ccccc3)c(=O)[nH]2)cc1	inconclusive: 2 µM [inhibitor, full curve, poor fit]	–
